{
  "sequences": {"note": "Protein sequences, listed by entry. Tags and fused reporters are not part of them.", "UniProt P21513": "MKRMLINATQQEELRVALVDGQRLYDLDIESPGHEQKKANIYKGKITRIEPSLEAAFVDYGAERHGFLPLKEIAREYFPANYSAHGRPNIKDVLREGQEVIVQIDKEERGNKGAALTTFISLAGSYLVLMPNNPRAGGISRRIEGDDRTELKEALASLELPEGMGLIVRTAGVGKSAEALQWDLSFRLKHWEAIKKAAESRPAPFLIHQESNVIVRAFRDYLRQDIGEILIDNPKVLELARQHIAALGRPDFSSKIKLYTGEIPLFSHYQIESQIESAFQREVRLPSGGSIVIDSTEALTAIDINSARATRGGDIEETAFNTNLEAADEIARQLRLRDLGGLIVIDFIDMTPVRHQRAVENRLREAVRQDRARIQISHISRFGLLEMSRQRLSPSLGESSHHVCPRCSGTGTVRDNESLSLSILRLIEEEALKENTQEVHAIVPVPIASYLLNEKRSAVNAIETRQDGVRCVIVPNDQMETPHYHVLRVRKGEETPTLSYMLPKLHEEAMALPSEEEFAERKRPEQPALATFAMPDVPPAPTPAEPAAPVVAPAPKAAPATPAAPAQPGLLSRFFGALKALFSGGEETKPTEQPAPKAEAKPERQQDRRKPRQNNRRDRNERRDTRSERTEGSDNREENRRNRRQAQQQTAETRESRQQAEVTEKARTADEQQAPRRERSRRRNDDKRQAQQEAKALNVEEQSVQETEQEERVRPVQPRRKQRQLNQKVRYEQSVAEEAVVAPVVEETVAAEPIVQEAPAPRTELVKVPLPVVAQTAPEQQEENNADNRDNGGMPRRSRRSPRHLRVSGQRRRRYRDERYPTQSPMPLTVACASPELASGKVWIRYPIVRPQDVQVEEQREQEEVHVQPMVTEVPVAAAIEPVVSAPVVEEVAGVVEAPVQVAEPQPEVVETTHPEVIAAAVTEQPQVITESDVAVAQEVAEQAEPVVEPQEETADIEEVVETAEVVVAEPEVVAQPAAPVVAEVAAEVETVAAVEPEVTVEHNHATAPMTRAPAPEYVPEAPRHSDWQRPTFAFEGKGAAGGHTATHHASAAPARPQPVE"},
  "source": "paper PMC7430671",
  "binders": {"B1": {"name": "RapZ_(1–279), BACTH fusion (domain or fragment, UniProt P0A894 1-279)", "chain": "MVLMIVSGRSGSGKSVALRALEDMGFYCVDNLPVVLLPDLARTLADREISAAVSIDVRNMPESPEIFEQAMSNLPDAFSPQLLFLDADRNTLIRRYSDTRRLHPLSSKNLSLESAIDKESDLLEPLRSRADLIVDTSEMSVHELAEMLRTRLLGKRERELTMVFESFGFKHGIPIDADYVFDVRFLPNPHWDPKLRPMTGLDKPVAAFLDRHTEVHNFIYQTRSYLELWLPMLETNNRSYLTVAIGCTGGKHRSVYIAEQLADYFRSRGKNVQSRHRTL"}, "B2": {"name": "RapZ_(1–278), BACTH fusion (domain or fragment, UniProt P0A894 1-278)", "chain": "MVLMIVSGRSGSGKSVALRALEDMGFYCVDNLPVVLLPDLARTLADREISAAVSIDVRNMPESPEIFEQAMSNLPDAFSPQLLFLDADRNTLIRRYSDTRRLHPLSSKNLSLESAIDKESDLLEPLRSRADLIVDTSEMSVHELAEMLRTRLLGKRERELTMVFESFGFKHGIPIDADYVFDVRFLPNPHWDPKLRPMTGLDKPVAAFLDRHTEVHNFIYQTRSYLELWLPMLETNNRSYLTVAIGCTGGKHRSVYIAEQLADYFRSRGKNVQSRHRT"}, "B3": {"name": "RapZ_(1–277), BACTH fusion (domain or fragment, UniProt P0A894 1-277)", "chain": "MVLMIVSGRSGSGKSVALRALEDMGFYCVDNLPVVLLPDLARTLADREISAAVSIDVRNMPESPEIFEQAMSNLPDAFSPQLLFLDADRNTLIRRYSDTRRLHPLSSKNLSLESAIDKESDLLEPLRSRADLIVDTSEMSVHELAEMLRTRLLGKRERELTMVFESFGFKHGIPIDADYVFDVRFLPNPHWDPKLRPMTGLDKPVAAFLDRHTEVHNFIYQTRSYLELWLPMLETNNRSYLTVAIGCTGGKHRSVYIAEQLADYFRSRGKNVQSRHR"}, "B4": {"name": "RapZ_(1–279) with Thr278 substituted by glycine, BACTH fusion (domain or fragment, UniProt P0A894 1-279)", "chain": "B1 chain with T278G"}, "B5": {"name": "RapZ_(1–279) Leu279Gly, BACTH fusion (domain or fragment, UniProt P0A894 1-279)", "chain": "B1 chain with L279G"}, "B6": {"name": "RapZNTD, BACTH fusion (domain or fragment, UniProt P0A894 1-152)", "chain": "MVLMIVSGRSGSGKSVALRALEDMGFYCVDNLPVVLLPDLARTLADREISAAVSIDVRNMPESPEIFEQAMSNLPDAFSPQLLFLDADRNTLIRRYSDTRRLHPLSSKNLSLESAIDKESDLLEPLRSRADLIVDTSEMSVHELAEMLRTRL"}, "B7": {"name": "RapZ variant lacking 5 residues from the amino terminus, BACTH fusion (domain or fragment, UniProt P0A894 6-284)", "chain": "VSGRSGSGKSVALRALEDMGFYCVDNLPVVLLPDLARTLADREISAAVSIDVRNMPESPEIFEQAMSNLPDAFSPQLLFLDADRNTLIRRYSDTRRLHPLSSKNLSLESAIDKESDLLEPLRSRADLIVDTSEMSVHELAEMLRTRLLGKRERELTMVFESFGFKHGIPIDADYVFDVRFLPNPHWDPKLRPMTGLDKPVAAFLDRHTEVHNFIYQTRSYLELWLPMLETNNRSYLTVAIGCTGGKHRSVYIAEQLADYFRSRGKNVQSRHRTLEKRKP"}, "B8": {"name": "RapZ variant lacking 10 residues from the amino terminus, BACTH fusion (domain or fragment, UniProt P0A894 11-284)", "chain": "GSGKSVALRALEDMGFYCVDNLPVVLLPDLARTLADREISAAVSIDVRNMPESPEIFEQAMSNLPDAFSPQLLFLDADRNTLIRRYSDTRRLHPLSSKNLSLESAIDKESDLLEPLRSRADLIVDTSEMSVHELAEMLRTRLLGKRERELTMVFESFGFKHGIPIDADYVFDVRFLPNPHWDPKLRPMTGLDKPVAAFLDRHTEVHNFIYQTRSYLELWLPMLETNNRSYLTVAIGCTGGKHRSVYIAEQLADYFRSRGKNVQSRHRTLEKRKP"}, "B9": {"name": "RapZ variant lacking 10 residues from the carboxyl terminus, BACTH fusion (domain or fragment, UniProt P0A894 1-274)", "chain": "MVLMIVSGRSGSGKSVALRALEDMGFYCVDNLPVVLLPDLARTLADREISAAVSIDVRNMPESPEIFEQAMSNLPDAFSPQLLFLDADRNTLIRRYSDTRRLHPLSSKNLSLESAIDKESDLLEPLRSRADLIVDTSEMSVHELAEMLRTRLLGKRERELTMVFESFGFKHGIPIDADYVFDVRFLPNPHWDPKLRPMTGLDKPVAAFLDRHTEVHNFIYQTRSYLELWLPMLETNNRSYLTVAIGCTGGKHRSVYIAEQLADYFRSRGKNVQS"}, "B10": {"name": "RapZCTD, BACTH fusion (domain or fragment, UniProt P0A894 153-284)", "chain": "LGKRERELTMVFESFGFKHGIPIDADYVFDVRFLPNPHWDPKLRPMTGLDKPVAAFLDRHTEVHNFIYQTRSYLELWLPMLETNNRSYLTVAIGCTGGKHRSVYIAEQLADYFRSRGKNVQSRHRTLEKRKP"}},
  "key": {"[1]": {"target": "RapZ_(1–279), BACTH fusion (E. coli) (UniProt P0A894)", "experiment": "two-hybrid; BACTH in E. coli BTH101, self-interaction: the same RapZ variant fused to T18 and to T25; β-galactosidase activity of cells grown to stationary phase at 28°C"}, "[2]": {"target": "full-length RNase E (RneFL), BACTH fusion (E. coli) (UniProt P21513)", "experiment": "two-hybrid; BACTH in E. coli BTH101: RapZ variant fused to T18, RNase E variant fused to T25; β-galactosidase activity of cells grown to stationary phase at 28°C"}, "[3]": {"target": "RapZ_(1–278), BACTH fusion (E. coli) (UniProt P0A894)", "experiment": "two-hybrid; BACTH in E. coli BTH101, self-interaction: the same RapZ variant fused to T18 and to T25; β-galactosidase activity of cells grown to stationary phase at 28°C"}, "[4]": {"target": "RapZ_(1–277), BACTH fusion (E. coli) (UniProt P0A894)", "experiment": "two-hybrid; BACTH in E. coli BTH101, self-interaction: the same RapZ variant fused to T18 and to T25; β-galactosidase activity of cells grown to stationary phase at 28°C"}, "[5]": {"target": "RapZ_(1–279) with Thr278 substituted by glycine, BACTH fusion (E. coli) (UniProt P0A894)", "experiment": "two-hybrid; BACTH in E. coli BTH101, self-interaction: the same RapZ variant fused to T18 and to T25; β-galactosidase activity of cells grown to stationary phase at 28°C"}, "[6]": {"target": "RapZ_(1–279) Leu279Gly, BACTH fusion (E. coli) (UniProt P0A894)", "experiment": "two-hybrid; BACTH in E. coli BTH101, self-interaction: the same RapZ variant fused to T18 and to T25; β-galactosidase activity of cells grown to stationary phase at 28°C"}, "[7]": {"target": "full-length RNase E (RneFL), BACTH fusion (E. coli) (UniProt P21513)", "experiment": "two-hybrid; BACTH in E. coli BTH101: RapZ variant fused to T25, RNase E (full length) fused to T18; β-galactosidase activity of cells grown to stationary phase at 28°C"}, "[8]": {"target": "RapZ variant lacking 5 residues from the amino terminus, BACTH fusion (E. coli) (UniProt P0A894)", "experiment": "two-hybrid; BACTH in E. coli BTH101, self-interaction: the same RapZ variant fused to T18 and to T25; β-galactosidase activity of cells grown to stationary phase at 28°C"}, "[9]": {"target": "RapZ variant lacking 10 residues from the amino terminus, BACTH fusion (E. coli) (UniProt P0A894)", "experiment": "two-hybrid; BACTH in E. coli BTH101, self-interaction: the same RapZ variant fused to T18 and to T25; β-galactosidase activity of cells grown to stationary phase at 28°C"}, "[10]": {"target": "RapZ variant lacking 10 residues from the carboxyl terminus, BACTH fusion (E. coli) (UniProt P0A894)", "experiment": "two-hybrid; BACTH in E. coli BTH101, self-interaction: the same RapZ variant fused to T18 and to T25; β-galactosidase activity of cells grown to stationary phase at 28°C"}},
  "note": "Numbering of substitutions follows the chain as printed. Results are given in words; binding and its absence hold for the method and conditions named. Some results given as binding are weak or reduced against the parent protein; the word gives no strength. Sequences can lack the tags named with a protein.",
  "data": [
    {"binder": "B1", "values": [
      {"measurement": "binding", "setting": "[1]", "value": "binds"},
      {"measurement": "binding", "setting": "[2]", "value": "binds"}
    ]},
    {"binder": "B2", "values": [
      {"measurement": "binding", "setting": "[3]", "value": "binds"}
    ]},
    {"binder": "B3", "values": [
      {"measurement": "binding", "setting": "[4]", "value": "binds"},
      {"measurement": "binding", "setting": "[2]", "value": "no binding"}
    ]},
    {"binder": "B4", "values": [
      {"measurement": "binding", "setting": "[5]", "value": "binds"},
      {"measurement": "binding", "setting": "[2]", "value": "binds"}
    ]},
    {"binder": "B5", "values": [
      {"measurement": "binding", "setting": "[6]", "value": "binds"},
      {"measurement": "binding", "setting": "[2]", "value": "no binding"}
    ]},
    {"binder": "B6", "values": [
      {"measurement": "binding", "setting": "[2]", "value": "no binding"},
      {"measurement": "binding", "setting": "[7]", "value": "no binding"}
    ]},
    {"binder": "B7", "values": [
      {"measurement": "binding", "setting": "[8]", "value": "no binding"},
      {"measurement": "binding", "setting": "[2]", "value": "no binding"}
    ]},
    {"binder": "B8", "values": [
      {"measurement": "binding", "setting": "[9]", "value": "no binding"},
      {"measurement": "binding", "setting": "[2]", "value": "no binding"}
    ]},
    {"binder": "B9", "values": [
      {"measurement": "binding", "setting": "[10]", "value": "no binding"},
      {"measurement": "binding", "setting": "[2]", "value": "no binding"}
    ]},
    {"binder": "B10", "values": [
      {"measurement": "binding", "setting": "[2]", "value": "no binding"},
      {"measurement": "binding", "setting": "[7]", "value": "no binding"}
    ]}
  ]
}
